Some values that stand alone complete this part of the results.
Target: 93TH057 gp120 core (HIV-1)
Assay: structure PDB 3NGB, AreaIMol, 1.4 Å probe

Substance: VRC01 Fab (structure of VRC01-93TH057, PDB code 3NGB)
- buried surface area, CDR1 (VRC01 heavy chain): 20 Å^2
- buried surface area, FWR3 (VRC01 heavy chain): 521 Å^2
- buried surface area, CDR1 (VRC01 light chain): 114 Å^2
- buried surface area, FWR3 (VRC01 light chain): 0 Å^2

— patent publication US20130209454A1
